Laboratory results taken from PubChem BioAssay AID463173 (ICCB-Longwood Screening Facility, Harvard Medical School, 2010).
The campaign covered roughly 52,000 compounds. About 1,700 (3.3%) were called active. No stated cut-off is given here; in the data, active means survival mostly below about 52% (no sharp cut-off); inactive means mostly above about 56%. This is one part of the list.

Each molecule was assayed on Wild type (assay: S. aureus survival, RN4220 and DeltatarO strains – OD600, teichoic acid synthesis inhibitors, primary screen (AID 463173)). Conditions: S. aureus RN4220 wild type/DeltatarO growth, OD600, 18 h, active compounds read low, screened at 18.75 µg/mL (by protocol).

Compound	survival
Cc1ccc(NC(=O)CSc2nc3ccc(NC(=O)c4cccc(Cl)c4)cc3s2)c(C)c1	inactive: 87%
COc1ccccc1C(=O)Nc1ccc(-c2nc3cc(C)cc(C)c3o2)cc1	inactive: 151%
CCc1ccc(S(=O)(=O)c2nnn3c2nc(N2CCN(CC)CC2)c2sccc23)cc1	inactive: 88%
O=C(Nc1ccc(F)cc1)N1CCCC(c2nc3c(nnn3Cc3ccccc3Cl)c(=O)[nH]2)C1 (centres undefined)	inactive: 114%
Cc1nc2sc(C)c(C)n2c(=O)c1S(=O)(=O)NCCc1ccc(Cl)cc1	inactive: 109%
O=C(C1CCCN(S(=O)(=O)c2cccs2)C1)N1CCN(c2ccccc2F)CC1 (centres undefined)	inactive: 92%
CN1C(=O)c2ccccc2Sc2ccc(NC(=O)NCc3ccccc3Br)cc21	inactive: 73%
Cc1ccc(CN(Cc2cccn2-c2nnc(N3CCCC3=O)s2)C(=O)Nc2cc(C)cc(C)c2)cc1	inactive: 123%
COc1ccc(-c2nc3c(c(SCC(=O)Nc4cc(C)cc(C)c4)n2)Cc2c(CO)cnc(C)c2O3)cc1	inactive: 85%
COc1cccc(CN2C(=O)C3(SCC(=O)N3c3ccc(F)cc3)c3ccccc32)c1 (centres undefined)	inactive: 91%
O=C1c2ccccc2C(=O)N1c1ncn[nH]1	inactive: 113%
CCCNS(=O)(=O)c1ccc(CCC(=O)NCC2CCCO2)cc1 (centres undefined)	inactive: 126%
Cc1ccc(CN(Cc2ccco2)C(=O)c2ccccc2Cl)o1	inactive: 96%
CCn1c(SC)nnc1C1CCCN(Cc2ccccc2)C1 (centres undefined)	inactive: 109%
O=C(NCc1cccc(Cl)c1)c1ccc2c(c1)nc1n2CCOC1	inactive: 71%
CC(=O)c1ccc(NC(=O)c2cn(C)c(=O)c3ccccc23)cc1	inactive: 94%
CC1Cc2ccccc2N1C(=O)CSc1nnnn1Cc1ccccc1 (centres undefined)	inactive: 91%
CCOc1ccc2nc(NC3=NCCC(=O)N3)nc(C)c2c1	inactive: 109%
Cc1cccc(N2CCN(C(=O)CCNS(=O)(=O)c3ccc4c(c3)CCN4C(=O)C3CC3)CC2C)c1 (centres undefined)	inactive: 70%
O=C(NC1CC(=O)N(c2ccccc2)C1)c1cccs1 (centres undefined)	inactive: 73%

Compound	survival
c1ccc(CNc2ncnc3[nH]ncc23)cc1	inactive: 101%
CCOC(=O)N1CCc2c(sc3c2c(=O)n(CCc2ccccc2)c(=O)n3Cc2ccc(C)cc2C)C1	inactive: 77%
COc1ccc(-c2nc(CCNC(=O)Cc3ccc(F)cc3)cs2)cc1	inactive: 134%
Cc1ccc2[nH]c3nc(NN)nnc3c2c1	inactive: 121%
Cc1cccc(C(=O)Nc2nc3c(s2)CCCC3)c1	inactive: 75%
CCOCCc1nn2c(=O)cc(COC(=O)c3ccccc3NC(=O)c3cccs3)nc2s1	inactive: 49%
CSc1ccc(CCNC(=O)c2ccc3c(c2)nc2n3CCC(C)C2)cc1 (centres undefined)	inactive: 75%
COc1ccc(N2CCN(C(=O)c3c(C)nn(-c4ccc(F)cc4)c3-n3cccc3)CC2)cc1	inactive: 68%
CCc1ccccc1NC(=O)N1CC(CC)Oc2ccc(Cl)cc21 (centres undefined)	inactive: 81%
CC1CCN(c2oc(-c3cccs3)nc2S(=O)(=O)c2ccc(Cl)cc2)CC1	active: -8%
Cc1ccc(CNC(=O)c2ccc(-n3c(C)cc4c3CCCC4)cc2)cc1	inactive: 71%
C/C(=N/NC(N)=S)c1ccc(Br)s1	inactive: 120%
COc1cc(OC)c(NC(=O)CSc2nccn2C)cc1Cl	inactive: 75%
O=C(CSc1nc2cc(C(=O)NC3CCCC3)ccc2c(=O)n1CC1CCCO1)c1ccc(F)cc1 (centres undefined)	inactive: 70%
CNC(=O)c1ccc2c(c1)N=C(C)c1cc(C)ccc1S2	inactive: 80%
Cc1ccc(C)c(S(=O)(=O)c2cn(Cc3ccccc3)c3cc(F)c(F)cc3c2=O)c1	inactive: 83%
Cc1ccc(OCC(=O)Nc2ccc3nc(SCC(=O)N4CCCC4)sc3c2)cc1	inactive: 91%
CCOC(=O)c1c(SCC(=O)Nc2nc3ccc(C)cc3s2)nc(=O)[nH]c1C	inactive: 81%
COc1ccc(Cn2nnnc2CN2CCN(C)CC2)cc1	inactive: 105%
CC1=CC(C)C(/C=N/N=C(N)N)C(C)C1 (centres undefined)	inactive: 92%

Compound	survival
CCCC(=O)OC1=CN(Cc2ccccc2)S(=O)(=O)c2ccccc21	inactive: 81%
O=C(Cn1cc(SCc2cccc(F)c2)c2ccccc21)N1CCOCC1	inactive: 88%
CN1C(=O)N(C)C2C1N(C)S(=O)(=O)N2C (centres undefined)	inactive: 97%
Cc1cc(C)c2sc(N(Cc3cccnc3)C(=O)CCS(=O)(=O)c3ccccc3)nc2c1	inactive: 67%
Cc1cccc(CSc2cn(CC(=O)N3CCCCC3)c3ccccc23)c1	inactive: 82%
CC(C)(C)C1CCc2oc3ccc(NS(=O)(=O)c4cc(Cl)ccc4Cl)cc3c2C1 (centres undefined)	inactive: 122%
O=C(c1cc(-c2ccc(Br)cc2)n[nH]1)N1CCN(S(=O)(=O)c2ccc(Br)cc2)CC1	inactive: 71%
CCC(=O)N1N=C(c2ccc(OC)cc2)CC1c1cn(-c2ccccc2)nc1-c1cccs1 (centres undefined)	inactive: 130%
COc1ccccc1N(CC(=O)NCCSCc1ccccc1Cl)S(C)(=O)=O	inactive: 67%
CC1(C)CC(N=CC2=C(O)c3ccccc3C2=O)CC(C)(C)N1	inactive: 109%
CCOC(=O)c1cnc2ccc(C)cc2c1Nc1ccc(OCc2ccccc2Cl)cc1	active: 4%
O=C(Cn1ccn(-c2ccc(F)cc2)c(=O)c1=O)NCCc1ccccc1	inactive: 87%
CC(=O)N1c2ccc(S(=O)(=O)N3CCN(c4ccc(C)cc4C)CC3)cc2CC1C (centres undefined)	inactive: 81%
CCOc1ccc(N(c2nc(-c3ccc(OC)c(OC)c3)no2)c2nc(-c3ccc(OC)c(OC)c3)no2)cc1	inactive: 81%
O=C(Nc1ccccc1)N1CCc2ccccc21	inactive: 107%
Cc1oc(-c2cccc(Br)c2)nc1CN1CCC(C(=O)NCCc2ccc(Cl)cc2)CC1	inactive: 81%
CCOC(=O)c1ccc(N2C(=O)c3n[nH]c(-c4cccs4)c3C2c2cccc(F)c2)cc1 (centres undefined)	inactive: 51%
CCOc1ccccc1NC(=O)C(CC(C)C)NS(=O)(=O)c1ccc2c(c1)CCN2C(C)=O (centres undefined)	inactive: 72%
S=c1n(CN2CCCCC2)c2ccccc2n1CN1CCCCC1	inactive: 90%
